{"source": "PubChem BioAssay AID463173", "about": "(ICCB-Longwood Screening Facility, Harvard Medical School, 2010)", "note": "Out of some 52,000 compounds screened, about 1,700 (3.3%) were called active. Cut-off read from the data, not from the text of the source: active = survival mostly below about 52% (no sharp cut-off); inactive = mostly above about 56%. This is one part of the list."}
{"test_system": "Wild type", "assay": "S. aureus survival, RN4220 and DeltatarO strains – OD600, teichoic acid synthesis inhibitors, primary screen (AID 463173)", "details": "S. aureus RN4220 wild type/DeltatarO growth, OD600, 18 h, hits give low values, screened at 18.75 µg/mL (by protocol)"}
{"smiles": "O=C(c1ccc2c(c1)N(Cc1ccccc1)C(=O)c1ccccc1S2(=O)=O)N1CCOCC1", "survival": "inactive: 84%"}
{"smiles": "COc1ccc(-c2nc3n(n2)C(c2ccc(O)cc2)C(C(=O)Nc2cccnc2)=C(C)N3)cc1OC", "note": "(stereo not drawn)", "survival": "inactive: 92%"}
{"smiles": "Cc1ccc2c(c1)c1c3n2CCN=C3CCC1", "survival": "inactive: 112%"}
{"smiles": "Cc1cc(S(=O)(=O)Nc2cc3c(cc2N2CCOCC2)n(C)c(=O)c(=O)n3C)ccc1F", "survival": "inactive: 71%"}
{"smiles": "COc1ccccc1CNc1nccn(-c2ccc(F)cc2)c1=O", "survival": "inactive: 76%"}
{"smiles": "CCCn1c2ccccc2c2cnn(CC(=O)NCC3CCN(Cc4ccccc4C)CC3)c(=O)c21", "survival": "active: 14%"}
{"smiles": "CCOc1ccc(CCNC(=O)NCc2noc3ccc(C)cc23)cc1", "survival": "inactive: 91%"}
{"smiles": "CCOCCc1nn2c(=O)cc(COC(=O)c3ccc(NC(=O)c4cccs4)cc3)nc2s1", "survival": "inactive: 118%"}
{"smiles": "Cc1cccc(C(=O)N2CCc3cc(CNC(=O)c4ccco4)ccc32)c1", "survival": "inactive: 87%"}
{"smiles": "CCCNC(=O)c1ccc(Cn2c(SCC(=O)NC(C)C)nc3ccccc3c2=O)cc1", "survival": "inactive: 75%"}
{"smiles": "COc1ccc(C(=O)Nc2nc(-c3ccc(Br)cc3)ns2)cc1", "survival": "inactive: 80%"}
{"smiles": "Cc1csc2nc(COc3ccc(NC(=O)c4ccccc4F)cc3)cc(=O)n12", "survival": "inactive: 93%"}
{"smiles": "O=C(NC1CC(=O)N(c2ccc(F)cc2)C1)c1ccc(S(=O)(=O)N2CCOCC2)cc1", "note": "(stereo not drawn)", "survival": "inactive: 92%"}
{"smiles": "COc1ccc(NC(=O)Cn2c(=O)c3cccn3c3ccccc32)cc1", "survival": "inactive: 89%"}
{"smiles": "Cn1c(=O)c2c(-c3ccccc3)n3c(c2n(C)c1=O)C(c1ccc([N+](=O)[O-])cc1)Nc1ccccc1-3", "note": "(stereo not drawn)", "survival": "inactive: 21%"}
{"smiles": "COc1ccc(S(=O)(=O)NCCc2sc(-c3cccnc3)nc2C)cc1", "survival": "inactive: 73%"}
{"smiles": "CCOC(=O)c1c(NC(=O)c2ccc(S(=O)(=O)N3CCCC(C)C3)cc2)sc2c1CC(C)(C)NC2(C)C", "note": "(stereo not drawn)", "survival": "inactive: 83%"}
{"smiles": "CCOCCCN1C(=O)CN(C2CCCCCC2)C(=O)C1c1ccc(OCC)c(OC)c1", "note": "(stereo not drawn)", "survival": "inactive: 124%"}
{"smiles": "O=c1[nH]c2ccccc2c(O)c1-c1nc2ccccc2c(=O)[nH]1", "survival": "inactive: 109%"}
{"smiles": "CC(=O)Nc1ccc(OC(=O)N2CCCC2)cc1", "survival": "inactive: 106%"}
{"smiles": "Cc1ccc(C(=O)c2oc3ccccc3c2NC(=O)c2cc(-c3ccccc3)on2)cc1", "survival": "inactive: 87%"}
{"smiles": "Cc1ccc(-n2ncc3c(Nc4ccc5c(c4)OCCO5)ncnc32)cc1Cl", "survival": "inactive: 128%"}
{"smiles": "CCOC(=O)c1[nH]c(C)c(CCC(=O)N2CCN(c3ccc(OC)cc3)CC2)c1C", "survival": "inactive: 82%"}
{"smiles": "COc1cc(OC)cc(C(=O)Nc2ccc3c(c2)CCCN3C(=O)c2cccs2)c1", "survival": "inactive: 118%"}
{"smiles": "CCCCN(C)S(=O)(=O)c1ccc(C(=O)Nc2sc3c(c2C(=O)OCC)CCN(C(C)C)C3)cc1", "survival": "inactive: 72%"}
{"smiles": "CCSc1nc(-c2ccccc2)nc2c1Cc1c(CO)cnc(C)c1O2", "survival": "inactive: 87%"}
{"smiles": "CCOC(=O)C1CCN(C(=O)C2CCN(S(=O)(=O)c3c(C)noc3/C=C/c3ccc(C)cc3)CC2)CC1", "survival": "inactive: 146%"}
{"smiles": "Cc1ccc(C(C)C)c(OCC(=O)Nc2ccc3c(c2)nc(CCNC(=O)c2ccco2)n3C)c1", "survival": "inactive: 88%"}
{"smiles": "CCCC1=Nc2cc(C(=O)NCc3ccccc3)ccc2Sc2ccccc21", "survival": "inactive: 86%"}
{"smiles": "O=C(O)CCC(=O)N1CCc2cc(S(=O)(=O)NCc3ccc(F)cc3)ccc21", "survival": "inactive: 85%"}
{"smiles": "COc1ccc(NC(=O)c2cccc3c(=O)c4c([nH]c23)CCCC4)cc1", "survival": "inactive: 76%"}
{"smiles": "CCOc1ccc(NC(=O)Cn2c(=O)n(Cc3ccccc3)c(=O)c3sc4ccccc4c32)cc1", "survival": "inactive: 78%"}
{"smiles": "N#Cc1ccc(-c2cccnc2)n(CC(=O)NCc2ccccc2)c1=O", "survival": "inactive: 122%"}
{"smiles": "Cc1cc(C)cc(NC(=O)CN2C(=O)CSc3ccc(S(=O)(=O)N4CCCC4)cc32)c1", "survival": "inactive: 88%"}
{"smiles": "Cc1cc(F)c(F)cc1C(=O)N1CCN(C)CC1", "survival": "inactive: 112%"}
{"smiles": "CCOC(=O)c1c(NC(=O)CSc2cn(CCNC(=O)c3ccccc3OC)c3ccccc23)sc2c1CCCC2", "survival": "inactive: 88%"}
{"smiles": "O=C(NCC1CCN(Cc2cccc(F)c2)CC1)c1cc2ccc3cccnc3c2[nH]1", "survival": "inactive: 65%"}
{"smiles": "Nc1n[nH]c(-c2ccc(Cl)cc2)c1Cl", "survival": "inactive: 119%"}
{"smiles": "Cc1cc(CN2CCC(C)CC2)cc(C)c1O", "survival": "inactive: 107%"}
{"smiles": "Cc1nn(CC(=O)N2CCN(c3ccccc3)CC2)c(=O)c2cc3cc(F)ccc3n12", "survival": "inactive: 77%"}
{"smiles": "CC1=C(c2ccc(C(C)C)cc2)S(=O)(=O)N=C1N1CCC(C(=O)NCc2ccco2)CC1", "survival": "inactive: 63%"}
{"smiles": "CCOc1ccc(NC(=O)c2c(NC(=O)c3cccc(C)c3)sc3c2CCC3)cc1", "survival": "inactive: 130%"}
{"smiles": "Cc1ccc(CNC(=O)Cn2c(=O)cc(-c3ccccc3)c3c(C)nn(C)c32)cc1", "survival": "inactive: 72%"}
{"smiles": "COc1ccccc1N1CCN(S(=O)(=O)CCNC(=O)COc2ccc(F)cc2)CC1", "survival": "inactive: 124%"}
{"smiles": "CCN(CC)CC(=O)Oc1ccc(NC2=NS(=O)(=O)c3ccccc32)cc1", "survival": "inactive: 100%"}
{"smiles": "CS(=O)(=O)NCc1nnc(SCC(=O)NC2CCCCC2)n1-c1ccc(F)cc1", "survival": "inactive: 102%"}
{"smiles": "COc1ccc(CCNc2ncnc3c2c(-c2ccccc2)cn3-c2cccc(Cl)c2)cc1OC", "survival": "inactive: 97%"}
{"smiles": "Cc1c(C(=O)NCCc2ccccc2)cccc1-n1cnc2cccnc21", "survival": "inactive: 70%"}
{"smiles": "CCc1ccc(NC(=O)CC2C(=O)N(c3ccc(OC)cc3)C(=O)N2Cc2ccc(OC)cc2)cc1", "note": "(stereo not drawn)", "survival": "inactive: 73%"}
{"smiles": "COc1cc(SC)ccc1C(=O)NCc1ccccc1", "survival": "inactive: 98%"}
{"smiles": "CCn1c(=O)c2sccc2n2c(CCCC(=O)N3CCN(c4cc(C)ccc4C)CC3)nnc12", "survival": "inactive: 98%"}
{"smiles": "COc1ccccc1CNC(=O)C1CCN(S(=O)(=O)c2c(C)noc2/C=C/c2cccs2)CC1", "survival": "inactive: 89%"}
{"smiles": "Cc1cc(=O)n(Cc2ccc(F)cc2Cl)c2c1c(C)nn2-c1ccccc1", "survival": "inactive: 70%"}
{"smiles": "Cc1ccn2c(=O)c(C(=O)NCCc3ccc(S(N)(=O)=O)cc3)c(O)nc2c1", "survival": "inactive: 72%"}
{"smiles": "COc1ccc(S(=O)(=O)NC2(C(F)(F)F)NC(=O)N(CCc3ccc(OC)c(OC)c3)C2=O)cc1", "note": "(stereo not drawn)", "survival": "inactive: 147%"}
{"smiles": "CS(=O)(=O)NCCc1csc2nc(-c3ccccc3)nn12", "survival": "active: -4%"}
{"smiles": "C/C(=N\\NC(N)N)C1CCCCCCCCCCC1", "survival": "active: -1%"}
{"smiles": "Cc1ccc(NCc2ccccc2-c2nnc(-c3ccccc3Cl)o2)cc1Cl", "survival": "inactive: 79%"}
{"smiles": "COc1ccc(N2C(=O)CSC23C(=O)N(CC(=O)NCc2ccccc2)c2ccccc23)cc1", "note": "(stereo not drawn)", "survival": "inactive: 67%"}
{"smiles": "COc1ccc(NC(=O)NCc2cccn2Cc2ccc(F)cc2)cc1OC", "survival": "inactive: 77%"}
{"smiles": "Cc1cc(Nc2ccccc2Cl)n2nc(-c3ccco3)nc2n1", "survival": "inactive: 78%"}
{"smiles": "COc1cccc(NC(=O)N(Cc2cn(C)c3ccccc23)C2CCCCC2)c1", "survival": "active: 0%"}
{"smiles": "COc1ccc(OC)c(NC(=O)c2c(NCc3ccc(C)o3)sc3c2CCCCC3)c1", "survival": "inactive: 86%"}
{"smiles": "COc1cc(C2C(C(=O)OC(C)C)=C(C)N=C3SCCC(=O)N32)ccc1OCc1ccccc1", "note": "(stereo not drawn)", "survival": "inactive: 89%"}
{"smiles": "CC(=O)Nc1ccc(C(=O)N2CCCC2)cc1", "survival": "inactive: 98%"}
{"smiles": "O=C(COCc1nc2ccccc2c(=O)[nH]1)NCC1CCCCC1", "survival": "inactive: 98%"}
{"smiles": "CC12CC(C)(C)C(C#N)(C(N)=C1C#N)C(=C(C#N)C#N)N2", "note": "(stereo not drawn)", "survival": "inactive: 100%"}
{"smiles": "Cc1nc2ccn(Cc3cccnc3)c(=O)c2cc1C(=O)NCc1ccc(Cl)cc1", "survival": "inactive: 73%"}
{"smiles": "COc1ccccc1CNC(=O)CCCn1nc(C)c2c(C)n(-c3ccc(C)cc3)nc2c1=O", "survival": "inactive: 78%"}
{"smiles": "CC(CNC(=O)c1ccc(CSc2nc3ccncc3n2Cc2cccc(F)c2)cc1)c1ccccc1", "note": "(stereo not drawn)", "survival": "inactive: 81%"}
{"smiles": "Cc1ccc(C)c(-c2nn(CC(=O)Nc3cc(F)ccc3F)c(=O)c3c2CCCC3)c1", "survival": "inactive: 75%"}
{"smiles": "CCOc1cccc(CC(=O)N2CCc3c([nH]c4ccccc34)C2c2ccc(C)cc2)c1OCC", "note": "(stereo not drawn)", "survival": "inactive: 83%"}
{"smiles": "COc1ccc(C(=O)Nc2ccc3c(c2)N(C2CCCC2)C(=O)c2ccccc2S3)cc1OC", "survival": "inactive: 67%"}
{"smiles": "COc1cc(C(=O)Nc2ccc(Cl)c(-c3nc4ncccc4o3)c2)cc(OC)c1OC", "survival": "inactive: 155%"}
{"smiles": "COC(=O)c1c(SC)nc2ccccc2c1OCc1ccc(C)cc1C", "survival": "inactive: 64%"}
{"smiles": "Cc1ccc2onc(CC(=O)Nc3cc(F)ccc3F)c2c1", "survival": "inactive: 80%"}
{"smiles": "Cc1ccc(-c2cc(C(F)(F)F)n3nc(C(=O)Nc4sc5c(c4C#N)CCC(C)C5)cc3n2)cc1", "note": "(stereo not drawn)", "survival": "inactive: 70%"}
{"smiles": "O=C(CSc1nnc2scc(-c3ccc(Cl)cc3)n12)Nc1ccccc1F", "survival": "inactive: 65%"}
{"smiles": "Cc1ccccc1CNC(=O)CCCn1c(=O)c2cccn2c2ccccc21", "survival": "inactive: 85%"}
{"smiles": "O=C(Cn1cc(S(=O)(=O)N2CCN(c3ccccc3F)CC2)c2ccccc2c1=O)Nc1cccc(C(F)(F)F)c1", "survival": "inactive: 77%"}
{"smiles": "N#Cc1c(/N=C/c2cccnc2)sc2c1CCC2", "survival": "inactive: 111%"}
{"smiles": "CC1(C)CC(=O)C(C=NC2CC(C)(C)NC(C)(C)C2)=C(O)C1", "survival": "inactive: 101%"}
{"smiles": "CC(=O)c1ccc(N2CCN(S(=O)(=O)c3cc(-c4onc(C)c4C)ccc3C)CC2)cc1", "survival": "inactive: 69%"}
{"smiles": "Cc1cccc2c1-c1sc(C(=O)N3CCN(c4ccc(F)cc4)CC3)cc1CO2", "survival": "inactive: 66%"}
{"smiles": "O=C(COc1ccc(S(=O)(=O)N2CCCC2)cc1)N1CCCC1", "survival": "inactive: 116%"}
{"smiles": "O=C(NCCc1ccccc1)C(=O)NCC(c1cccnc1)N1CCN(c2ccccc2)CC1", "note": "(stereo not drawn)", "survival": "inactive: 82%"}
{"smiles": "COCCNC(=O)CN1C(=O)COc2ccc(S(=O)(=O)N3CCOCC3)cc21", "survival": "inactive: 85%"}
{"smiles": "CC(C)N(C(=O)CSc1nnnn1Cc1ccccc1)C(C)C", "survival": "inactive: 115%"}
